The source of these data is US20100204131A1, “USE OF A PEPTIDE AS A THERAPEUTIC AGENT” (priority 2007, published 2010).

No end group written: not given here.

The test system of this test is RAW 264.7 (Mouse leukaemic monocyte macrophage cell line) cells. Nature of the test: Phagocytosis assay. As to conditions: 10 micrograms per ml, Fluorescein-labeled Escherichia coli, flow cytometry. On the technique in general: In flow cytometry, cells or beads pass a laser one at a time.

On to “Ala-Ser-Gln-Phe-Glu-Thr-Ser-OH (ASQFETS-OH) [peptide 2]”, for which the “effect on the phagocytic activity of murine macrophages (increase)” value was found to be 31.4%. As for “Ser-Tyr-Ser-Met-Glu-His-Phe-Arg-Trp-Gly-Lys-Pro-Val-Gly-Lys-Lys-Arg-Arg-Pro-Val-Lys-Val-Tyr-Pro-OH [peptide 1]”, the entry is “no inhibitory or activating effects”.
